Assay results taken from publication PMC4336329 (PLoS ONE, 2015).
Hit rate of the full screen: of about 310,000 compounds, about 14,000 (4.5%) showed an effect of 50% or more. The effect is printed as a negative number. Some of the results follow.

Target: human ether-à-go-go-related gene (hERG) potassium channel (human, UniProt Q12809)
Test: primary screen, population patch clamp on CHO cells stably expressing hERG
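Also: peak tail current of the secondary pulse compared with the same well before compound.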

Chain of human ether-à-go-go-related gene (hERG) potassium channel (Q12809 whole entry, looked up): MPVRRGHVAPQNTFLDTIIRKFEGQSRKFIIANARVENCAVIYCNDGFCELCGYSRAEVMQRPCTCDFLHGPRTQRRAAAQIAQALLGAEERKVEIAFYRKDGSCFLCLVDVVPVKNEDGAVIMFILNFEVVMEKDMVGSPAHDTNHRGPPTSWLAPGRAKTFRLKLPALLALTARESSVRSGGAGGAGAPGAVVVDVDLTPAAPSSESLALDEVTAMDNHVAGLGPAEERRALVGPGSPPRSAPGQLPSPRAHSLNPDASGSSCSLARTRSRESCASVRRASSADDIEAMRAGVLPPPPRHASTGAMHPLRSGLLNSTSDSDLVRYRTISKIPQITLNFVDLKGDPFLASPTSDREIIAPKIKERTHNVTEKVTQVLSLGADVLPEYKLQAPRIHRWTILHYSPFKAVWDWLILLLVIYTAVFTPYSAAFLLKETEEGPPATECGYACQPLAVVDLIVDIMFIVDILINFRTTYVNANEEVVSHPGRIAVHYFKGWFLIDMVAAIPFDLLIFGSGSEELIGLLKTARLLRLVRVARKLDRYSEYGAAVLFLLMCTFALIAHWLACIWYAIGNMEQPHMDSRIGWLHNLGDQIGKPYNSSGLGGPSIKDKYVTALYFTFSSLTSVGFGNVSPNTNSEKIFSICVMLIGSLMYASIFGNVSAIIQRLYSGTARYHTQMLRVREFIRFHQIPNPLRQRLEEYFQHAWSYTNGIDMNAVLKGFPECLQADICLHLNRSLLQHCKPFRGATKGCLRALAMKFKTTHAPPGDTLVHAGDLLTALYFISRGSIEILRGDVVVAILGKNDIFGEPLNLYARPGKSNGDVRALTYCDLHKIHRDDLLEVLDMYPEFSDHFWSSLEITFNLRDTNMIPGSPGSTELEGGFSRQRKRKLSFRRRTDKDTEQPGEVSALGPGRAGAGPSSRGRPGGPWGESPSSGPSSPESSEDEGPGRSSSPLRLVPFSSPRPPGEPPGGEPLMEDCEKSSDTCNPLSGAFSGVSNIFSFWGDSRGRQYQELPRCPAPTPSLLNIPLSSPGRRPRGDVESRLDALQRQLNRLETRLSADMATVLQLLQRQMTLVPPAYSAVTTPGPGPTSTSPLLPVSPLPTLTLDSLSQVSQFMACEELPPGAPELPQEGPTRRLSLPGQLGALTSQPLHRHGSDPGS

| Structure (SMILES) | hERG current change (%, negative = inhibition) at 10uM [%] |
| --- | --- |
| Cc1cc(C(=O)Nc2ccc(Cl)c(S(=O)(=O)N3CCOCC3)c2)c2ccccc2n1 | -13.7 |
| COc1ccc(S(=O)(=O)N2CCCC(C(=O)NCc3ccc(F)cc3)C2)cc1 (stereo not drawn) | 6.39 |
| O=C(CSc1nncc(=O)[nH]1)Nc1cccc([N+](=O)[O-])c1 | -40.9 |
| COc1cc(/C=N/n2c(C3CCCCC3)n[nH]c2=S)cc(OC)c1O | 16.8 |
| CN1CC[C@@]2(C)c3cc(O)ccc3N(C)C2O1 (stereo partly drawn) | -6.32 |
| Fc1ccc(Cn2nnnc2C(c2cccs2)N2CCN(C3CCCCC3)CC2)cc1 (stereo not drawn) | -66.4 |
| CCOc1cc(/C=N\Nc2nc(-c3ccc(C)cc3)c(NC(C)=O)s2)ccc1O | -3.16 |
| Cc1cc(O)c2c3c(c(=O)oc2c1)CCC(C)C3 (stereo not drawn) | -0.686 |
| CN(C)C(=Nc1ccccc1)P(=S)(N(C)C)N(C)C | 2.68 |
| COc1ccc(CCN(C)C(=O)C2CC(=O)N(Cc3ccc(C)cc3)C2)cc1OC (stereo not drawn) | 0.405 |
| CC1(C)OC(=O)C=C(CC2NS(=O)(=O)OC3CCCCC23)O1 (stereo not drawn) | -0.0926 |
| COC(=O)CSCc1nc2ccccc2[nH]c1=O | 18.4 |
| COc1ccccc1NC(=O)C1C2C=CC3(CN(Cc4cccnc4)C(=O)C13)O2 (stereo not drawn) | 7.4 |
| Cc1ccccc1-c1cc2nc(-c3ccc([N+](=O)[O-])cc3)cc(=O)n2[nH]1 | 30.3 |
| O=c1c(C=Nc2ccc(Cl)cc2)c[nH]n1-c1cccc(Cl)n1 | 13.7 |
| O=S(=O)(c1ccc(Cl)cc1Cl)n1ccc2cccnc21 | 8.24 |
| CCN1CCN(S(=O)(=O)c2ccc(Cl)c(C(=O)NC(C)c3ccccc3Cl)c2)CC1 (stereo not drawn) | -20.3 |
| Cc1nnc(NN2CCOCC2)[nH]c1=O | 20.9 |
| CCNC(=O)CC1SC(=Nc2cccc3ccccc23)N(C)C1=O (stereo not drawn) | 5.05 |

| Structure (SMILES) | hERG current change (%, negative = inhibition) at 10uM [%] |
| --- | --- |
| Cc1c(Cl)ccc2sc(NC(=O)C3CC3)nc12 | 12.3 |
| COCCCN1C(=O)c2ccc(C(=O)O)cc2C1=O | -0.568 |
| O=C(Nc1nnc(SCc2ccccc2)s1)c1cccc([N+](=O)[O-])c1 | 4.61 |
| Cc1ccc(NC(=S)NCC(C)CSc2ccc(Cl)cc2)cc1 (stereo not drawn) | 3.29 |
| Cc1ccc(NC(=O)CN2CCCN(S(=O)(=O)c3ccc(Br)s3)CC2)cc1 | -50.1 |
| COc1ccc(-c2nnc(CSc3nc4ccccc4c(=O)n3C)o2)cc1OC | -4.89 |
| [N-]=[N+]=CC(=O)CC(c1ccccc1)N1C(=O)c2ccccc2C1=O (stereo not drawn) | 25 |
| O=S(=O)(NCC1CCN(c2ccc(S(=O)(=O)N3CCOCC3)cc2)CC1)c1ccc(F)cc1 | -11.7 |
| CSc1oc(-c2ccc(F)cc2)nc1S(=O)(=O)c1ccc(F)cc1 | 3.51 |
| CC(=O)c1ccc2c(c1)CC(C)C(=O)N2C (stereo not drawn) | 1.75 |
| CCc1noc(C)c1C(=O)N1CCCC(N2CCN(c3cccc(Cl)c3)CC2)C1 (stereo not drawn) | -1.09 |
| Cc1cc(C)cc(NC(=O)CSc2nc3ccccc3nc2N2CCCCC2)c1 | 8.14 |
| CC(=O)Nc1cccc([As](=O)(c2cccc(NC(C)=O)c2)c2cccc(NC(C)=O)c2)c1 | 2.67 |
| CCOC(=O)CC1=NC(=O)CS1 | 12 |
| CCN(CC)CC(C)CNC(=O)C1(O)c2ccccc2NC(=O)N1c1ccc(Cl)c(Cl)c1 (stereo not drawn) | 3.31 |
| CCCc1cc(=O)oc2cc(OCc3nn[nH]n3)ccc12 | 1.1 |
| COc1cc(NC(=O)CN2C(=O)NC(C)(CC(C)C)C2=O)cc(OC)c1 (stereo not drawn) | 13.6 |
| CCOC(=O)C1CCCN(CCSc2ccc(C)cc2)C1.Cl (stereo not drawn) | -28.3 |
| N#Cc1c(NC(=S)NC(=O)Cc2cccs2)sc2c1CCCCC2 | 4.12 |

| Structure (SMILES) | hERG current change (%, negative = inhibition) at 10uM [%] |
| --- | --- |
| COc1cc(CCC(=O)NCCc2ccc(F)cc2)cc(OC)c1OC | 8.49 |
| COc1ccc(C2SCCN2C(=S)Nc2cccc(Cl)c2)cc1 (stereo not drawn) | -0.256 |
| CN1CCc2c1nc1ccccc1c2N=C1CCCN1Cc1ccccc1.Cl | 0.531 |
| CC(=O)Nc1ccc(/C(C)=N/NS(=O)(=O)c2ccc(C)cc2)cc1 | 0.256 |
| NC(=O)C1CCCN(CC(=O)Nc2cc(S(=O)(=O)N3CCOCC3)ccc2N2CCCC2)C1 (stereo not drawn) | 2.5 |
| O=C(CCSc1nc2ccccc2s1)N/N=C/c1c(O)ccc2ccccc12 | 21.2 |
| CCOC(=O)C(=O)N/N=C/c1ccco1 | 11.3 |
| CCOC(=O)CN1C(=O)CN(c2ccc(C)cc2)C1=O | 1.51 |
| O=C(NCc1ccccc1)C(c1ccccc1)N(Cc1cccs1)C(=O)c1cnccn1 (stereo not drawn) | -30.5 |
| Nc1ccc(-n2cc(-c3ccccc3)[nH]c2=S)cc1 | 33.3 |
| Cc1c(C(=O)O)oc2ccc(S(=O)(=O)NCc3ccc(F)cc3)cc12 | 0.999 |
| Cc1c(C(=O)O)sc2nc(-c3cccs3)cc(C(F)(F)F)c12 | 25.8 |
| CCN(C(=O)CN1C(=O)S/C(=C\c2ccc(F)cc2)C1=O)C1CCS(=O)(=O)C1 (stereo not drawn) | -19.8 |
| CCOC(=O)c1cnc(-n2nc(C)cc2C)nc1NNc1cc(-c2ccccc2)nc(C)n1 | 11.2 |
| CCOC(=O)Cc1csc(NC(=O)Cc2ccc(C)cc2)n1 | -18 |
| Cc1ccc(S(=O)(=O)Oc2ccccc2/C=N/NC(=O)c2nn(C)cc2[N+](=O)[O-])cc1 | 0.0535 |
| O=C(COC(=O)c1ccccc1)NCC1CCCO1 (stereo not drawn) | 3.16 |
| Cc1cc(C)c(S(=O)(=O)N2CCN(C(=O)N3CCCCC3)CC2)c(C)c1 | -4.39 |
| CCN(Cc1ccncc1)Cc1nc(-c2ccc(C(=O)OC)cc2)no1 | -13.5 |
